Test results published in PubChem BioAssay AID624417 (National Center for Advancing Translational Sciences (NCATS), 2012).
The campaign covered roughly 410,000 compounds. About 6,400 (1.6%) were called active. Inconclusive means that the source gave no clear call. Such entries were picked first, then a sample of the others. The call rests on the fitted dose curve; in most records, active means well fitted inhibition curve with a large enough effect; inconclusive means small, poorly fitted or top-dose-only effect; inactive means no such curve, though single readings can be large or run the other way. Potencies of inconclusive entries are left out as doubtful fits.

These compounds were tested against Glucagon-like peptide 1 receptor (Homo sapiens) (UniProt P43220) (assay: qHTS of GLP-1 Receptor Inverse Agonists (Inhibition Mode)). Settings: HEK293 GLP-1R CRE-luciferase, luminescence, 24 h, GLP-1R form is constitutively active; activity change, negative = inhibition: at 38.3 µM (top of the series) unless noted.
Chain of UniProt P43220 (P43220 whole entry, looked up): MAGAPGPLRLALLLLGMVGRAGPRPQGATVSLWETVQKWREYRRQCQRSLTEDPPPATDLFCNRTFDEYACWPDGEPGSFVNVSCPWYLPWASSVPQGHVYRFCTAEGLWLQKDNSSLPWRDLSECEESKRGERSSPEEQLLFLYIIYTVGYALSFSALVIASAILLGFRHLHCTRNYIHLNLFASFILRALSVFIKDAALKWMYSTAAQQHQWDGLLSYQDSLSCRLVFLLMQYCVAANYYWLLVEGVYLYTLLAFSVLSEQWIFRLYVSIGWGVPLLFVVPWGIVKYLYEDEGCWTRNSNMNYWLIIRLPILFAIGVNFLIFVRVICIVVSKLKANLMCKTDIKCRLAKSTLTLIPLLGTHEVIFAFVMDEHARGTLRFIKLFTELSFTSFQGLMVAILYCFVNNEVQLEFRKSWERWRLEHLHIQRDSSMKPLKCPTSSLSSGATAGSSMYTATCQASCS
In short: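 Readout was luciferase luminescence, measured 12 min after detection reagent at room temperature. Beforehand, GLP-1R reporter HEK293 cells had sat 12 h, then received compounds for 24 hr at 37 deg C.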
Further: nearly all actives have a fitted effect of over 55% in size.
On the % scale 0 is the no-effect control and ±100 the full control effect; potency means the concentration at half of the fitted maximal effect; tags describe the fitted curve by direction and shape.

Compound	Potency	activity change, negative = inhibition
COc1cccc(CC(=O)Nc2c(C(=O)N3CCN(c4ccccc4F)CC3)oc3ccccc23)c1	inconclusive [inhibitor, single point]	
Cc1ccc(NC(NC(=O)c2cccs2)C(Cl)(Cl)Cl)cc1 (configuration not stated)	inconclusive [inhibitor, partial curve, poor fit]	
O=[N+]([O-])c1cc(/C=N/Nc2nc3ccccc3[nH]2)c(O)cc1O	inconclusive [inhibitor, single point]	
COC(OC)C1(CCc2ccccc2)NC(=O)NC1=O (configuration not stated)		inactive: 0.53%
CCCn1c(C)cc(C(=O)CN2C(=O)c3ccccc3S2(=O)=O)c1C	inconclusive [inhibitor, full curve, poor fit]	
CC(C)CCNC(=O)C(c1ccc(O)cc1)N(C(=O)C1COc2ccccc2O1)c1cccc(O)c1 (configuration not stated)	inconclusive [inhibitor, single point]	
CN(C)S(=O)(=O)c1cccc(NC(=O)c2ccc(COc3ccccc3)cc2)c1	active: 10 µM	
COc1ccc(NC(=O)/C=C/c2cc(Br)ccc2OC)cc1	inconclusive [inhibitor, partial curve, poor fit]	
Cc1ccc(C(=O)N2CCC(N3CCC(C(=O)N4CCOCC4)CC3)CC2)cc1		inactive: 6.97%
O=C(C(=O)N1CCC(Cc2ccccc2)CC1)c1cccc(Br)c1	inconclusive [inhibitor, partial curve, poor fit]	
COc1ccc(N2CCN(C(=O)c3cccc(Br)c3)CC2)c([N+](=O)[O-])c1	inconclusive [inhibitor, single point]	
Cc1ccc2nc(Nc3nc(-c4ccccc4)cc(=O)[nH]3)nc(C)c2c1		inactive: 17.6%
COc1ccc(C(=O)N(C)Cc2cnn(Cc3ccccc3)c2)cc1S(=O)(=O)N1CCOCC1	inconclusive [inhibitor, full curve, poor fit]	
CN(CC(=O)Nc1ccccc1Br)C(=O)c1ccccc1Sc1ccccc1C#N	inconclusive [inhibitor, single point]	
Nc1c(Cl)ncnc1N/N=C/c1ccccn1	inconclusive [inhibitor, full curve, poor fit]	
O=C(NN=C1CCC(=NNC(=O)c2ccccn2)CC1)c1ccccn1	inconclusive [inhibitor, single point]	
CC1CCCC(NC(=O)CN2CCN(Cc3ccc(Cl)cc3)C2=O)C1C (configuration not stated)	inconclusive [inhibitor, single point]	
COc1cccc(/C=N/NC(=O)CNC(=O)COc2ccccc2)c1O	inconclusive [inhibitor, single point]	
COc1ccc(C(O)c2ncc(-c3cccc4ccccc34)[nH]2)cc1F (configuration not stated)	inconclusive [inhibitor, partial curve, poor fit]	
CCCC(=O)NC(c1ccccc1Cl)c1c(O)ccc2ccccc12 (configuration not stated)	active: 7.08 µM	
OCC1(CCCc2ccccc2)CCN(Cc2ccc(F)cc2)CC1	inconclusive [inhibitor, partial curve, poor fit]	

Compound	Potency	activity change, negative = inhibition
COc1ccc(C)cc1NC(=O)Cn1cc(S(=O)(=O)N2CCC(C)CC2)c2ccccc2c1=O	inconclusive [inhibitor, single point]	
Cc1ccc2c(c1)c1c(n2CC(O)Cn2c(C)nc3ccccc32)C(=O)CCC1 (configuration not stated)		inactive: 8.24%
Cc1cc(C)cc(OCC(=O)N2CCC(c3nc4ccccc4o3)CC2)c1	inconclusive [inhibitor, single point]	
Cc1csc2nc(NC(=O)c3ccccc3)sc(=O)c12		inactive: 25.6%
CC1(C)CC(=O)c2cc(-c3nc(-c4ccc(F)cc4)cs3)c(=O)[nH]c2C1		inactive: 6.49%
CC(=O)c1ccc(N2CCC(c3cc(-c4ccc(Cl)cc4Cl)n[nH]3)CC2)c([N+](=O)[O-])c1	inconclusive [inhibitor, partial curve, poor fit]	
Cc1cc(NC(=O)NC(=O)c2ccccc2NC(=O)CN)ccc1Oc1ncc(Br)cn1	inconclusive [inhibitor, full curve, poor fit]	
CN(C)c1ccc(/C=C2\SC(=O)N(CCc3nnc(N)s3)C2=O)cc1	inconclusive [inhibitor, partial curve, poor fit]	
CN(C(=O)c1ccoc1)c1ccc2ccccc2c1	inconclusive [inhibitor, partial curve, poor fit]	
CC(C)C(=O)N1CCC1(C)C(=O)NCc1ccc(C(C)(C)C)cc1 (configuration not stated)		inactive: -8.09%
CCN(C(=O)C(NS(=O)(=O)c1ccc(Br)s1)c1ccccc1)c1ccc(C)c(C)c1 (configuration not stated)	inconclusive [inhibitor, partial curve, poor fit]	
Cc1ccc(C)c(N2CCN(c3ccc4cc(S(=O)(=O)N5CCCCC5)ccc4n3)CC2)c1		inactive: 4.6%
COc1ccc(C2=NOC(CNC(N)=S)C2)cc1 (configuration not stated)	inconclusive [inhibitor, single point]	
COc1ccc(S(=O)(=O)N2CCN(CCc3ccccc3)CC2)c(OC)c1	inconclusive [inhibitor, full curve, poor fit]	
Cc1ccc(OCCC(=O)NCCc2ccc(S(N)(=O)=O)cc2)cc1		inactive: -2.02%
O=C(Nc1ccc(Cl)c(Cl)c1)Nc1ccccc1O	inconclusive [inhibitor, single point]	
COc1cc(C(F)(F)F)c(C(=O)N(C)Cc2cccc(Cl)c2)cn1	inconclusive [inhibitor, single point]	
O=C(/C=C/c1cn(-c2ccccc2)nc1-c1cccs1)NCCN1CCOCC1	inconclusive [inhibitor, single point]	
NS(=O)(=O)c1ccc(CCNC(=O)C2CCCCN2S(=O)(=O)c2ccccc2)cc1 (configuration not stated)		inactive: 5%
CC(=O)c1cccc(N(C(=O)c2csnn2)C(C(=O)NC2CCCC2)c2ccccc2)c1 (configuration not stated)	inconclusive [inhibitor, partial curve, poor fit]	
CCOc1ccc(CCNC(=O)c2ccc(CSCc3ccccc3C)o2)cc1OCC	inconclusive [inhibitor, partial curve, poor fit]	

Compound	Potency	activity change, negative = inhibition
Cc1nc(Cl)c(C(=O)NCc2ccccc2)c(C)c1[N+](=O)[O-]	inconclusive [inhibitor, full curve, poor fit]	
CCOc1cc(C(=O)OCc2cccc(OC)c2OC)ccc1OCC(=O)N1CCOCC1	inconclusive [inhibitor, single point]	
C[C@@H](C(=O)NCCc1ccc(F)cc1)N1C(=O)N2CCc3c([nH]c4ccccc34)[C@@]2(C)C1=O	inconclusive [inhibitor, single point]	
COc1ccc(-c2cc(C(F)(F)F)n3nc(C(=O)NCc4ccco4)cc3n2)cc1		inactive: -4.77%
CCS(=O)(=O)N1CCN(c2c(Cl)cccc2[N+](=O)[O-])CC1	inconclusive [inhibitor, single point]	
COc1cc(C2CC(=O)c3c([nH]c(C(=O)OC4CCCC4)c3C)C2)cc(OC)c1OC (configuration not stated)	inconclusive [inhibitor, partial curve, poor fit]	
Cn1cccc1-c1cc(C(=O)N/N=C/c2ccccc2Cl)[nH]n1		inactive: -27.9%
O=C(Cc1ccc(Cl)cc1)NCCc1c[nH]c2ccccc12	inconclusive [inhibitor, partial curve, poor fit]	
O=C(C(=O)N1CCN(c2ccc(F)cc2)CC1)c1c[nH]c2ccccc12		inactive: 1% [at 0.307 µM]
COc1ccccc1CN1C[C@@H]2C[C@@H](c3ccc(C)c(C)c3)N3CCC[C@@]23C1=O	inconclusive [inhibitor, partial curve, poor fit]	
CN(c1ccccc1)c1nc(N)c([N+](=O)[O-])c(N2CCCCC2)n1	inconclusive [inhibitor, single point]	
O/N=C(/c1ccc(F)cc1)C1CC1c1c(F)cccc1Cl (configuration not stated)	inconclusive [inhibitor, partial curve, poor fit]	
CCOC(=O)C1(CCCc2ccccc2)CCN(C(=O)c2ccoc2)CC1	inconclusive [inhibitor, single point]	
Cc1cc(C)nc(Nc2nc(C(N)Cc3ccccc3)cs2)n1 (configuration not stated)	inconclusive [inhibitor, partial curve]	
COC(=O)c1ccc(-n2c(C)cc(C(=O)COC(=O)CC3Sc4ccccc4NC3=O)c2C)cc1 (configuration not stated)	inconclusive [inhibitor, partial curve, poor fit]	
COc1ccccc1C1=CC(=O)C[C@H](c2ccc3c(c2)OCO3)C1	inconclusive [inhibitor, partial curve, poor fit]	
COc1cc(C(=O)N2CCN(c3ccccc3OC)CC2)c([N+](=O)[O-])cc1OC	inconclusive [inhibitor, single point]	
CCCN1CCCc2cc(CN(CCCN3CCOCC3)C(=O)Nc3ccc(Cl)c(Cl)c3)ccc21	inconclusive [inhibitor, single point]	
COCC(=O)N1CCC(Oc2ccc(C(=O)NCCCC3CCCC3)cc2)CC1	inconclusive [inhibitor, single point]	
Cc1ccc(NC(=S)NNC(=O)c2ccccc2O)c(C)c1	inconclusive [inhibitor, single point]	
